{"source": "PubChem BioAssay AID1476", "about": "(National Center for Advancing Translational Sciences (NCATS), 2009)", "note": "In all, about 200,000 compounds went through this assay and about 4,500 (2.2%) were called active. This list was built around the results that the source calls inconclusive (neither active nor inactive); the mix of calls is not that of the screen. Calls come from the whole dose curve; as a rule, active = well fitted inhibition curve with a large enough effect; inconclusive = small, poorly fitted or top-dose-only effect, or effect the other way; inactive = flat fitted curve, though single readings scatter. Where the call is inconclusive, the potency comes from a doubtful curve fit. Potency is the fitted concentration of half-maximal effect; tags give direction and shape of the fitted curve."}
{"target": "Cruzipain (Trypanosoma cruzi) (UniProt P25779)", "sequence (P25779 whole entry, looked up)": "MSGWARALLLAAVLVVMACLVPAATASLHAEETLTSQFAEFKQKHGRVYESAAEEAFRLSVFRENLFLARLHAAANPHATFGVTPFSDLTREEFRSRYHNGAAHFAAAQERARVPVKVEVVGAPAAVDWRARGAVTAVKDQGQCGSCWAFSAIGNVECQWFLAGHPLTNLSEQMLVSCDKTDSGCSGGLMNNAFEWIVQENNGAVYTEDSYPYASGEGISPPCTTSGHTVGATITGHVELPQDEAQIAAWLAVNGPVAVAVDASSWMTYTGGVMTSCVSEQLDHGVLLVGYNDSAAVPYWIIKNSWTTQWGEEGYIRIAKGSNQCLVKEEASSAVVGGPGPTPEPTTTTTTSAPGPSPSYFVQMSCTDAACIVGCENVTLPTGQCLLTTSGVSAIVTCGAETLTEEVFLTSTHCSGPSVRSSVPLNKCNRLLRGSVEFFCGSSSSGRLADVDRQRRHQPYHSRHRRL", "assay": "qHTS Assay for Promiscuous and Specific Inhibitors of Cruzain (without detergent); note: nearly all actives have a fitted effect of over 40% in size;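 for max response, negative = inhibition: plate controls were enzyme without inhibitor for no effect and buffer without enzyme for full effect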", "conditions": "purified cruzain, Z-FR-AMC fluorescence, no detergent", "procedure,_shortened": "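Detergent-free condition (0.00005% Triton X-100) in acetate buffer pH 5.5 with DTT. 1.5 nM enzyme and compound were pre-mixed 15 min, then 2 uM Z-FR-AMC substrate added; reaction progress from fluorescence change between first and third reads (60 s).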"}
{"smiles": "COc1ccc(N2CC(NC(=O)c3ccc(S(=O)(=O)N4CCCCC4)cc3)CC2=O)cc1OC", "note": "(stereo not drawn)", "Potency": "inconclusive: 39.8 µM [activator, single point]"}
{"smiles": "Cc1cccc(-n2c(O)c(C=Nc3ccc(O)cc3)c3ccccc3c2=O)n1", "Potency": "inconclusive: 39.8 µM [activator, single point]"}
{"smiles": "COc1ccccc1CN1CC[C@@]2(CCCN(C(C)=O)C2)C1", "max response, negative = inhibition": "inactive: -13.7%"}
{"smiles": "COc1cccc(C(=O)c2cn(CC(=O)Nc3cccc(C)c3C)c3nc(C)ccc3c2=O)c1", "Potency": "inconclusive: 6.31 µM [activator, single point]"}
{"smiles": "COc1cc(-c2nnc(SCCOc3ccc(C)c(Cl)c3)o2)cc(OC)c1OC", "Potency": "inconclusive: 1.58 µM [activator, single point]"}
{"smiles": "O=C(CSc1nnc(-c2ccncc2)n1Cc1ccco1)N1c2ccccc2Sc2ccc(Cl)cc21", "Potency": "inconclusive: 39.8 µM [activator, single point]"}
{"smiles": "CCCCn1c(N)c(N(CCC(C)C)C(=O)CSc2nnc(C)s2)c(=O)[nH]c1=O", "Potency": "inconclusive: 20 µM [activator, partial curve]"}
{"smiles": "COc1cc2cc(CN(CCCO)S(=O)(=O)c3ccccc3Cl)c(=O)[nH]c2cc1OC", "Potency": "inconclusive: 39.8 µM [activator, single point]"}
{"smiles": "CCOC(=O)c1ccc(COC(=O)CCc2nc(-c3ccccc3)c(-c3ccccc3)o2)cc1", "Potency": "inconclusive: 25.1 µM [inhibitor, single point]"}
{"smiles": "Cc1ccc2cccc(NC(=O)C(C)(C)Oc3ccc(Br)cc3)c2n1", "max response, negative = inhibition": "inactive: -19.2%"}
{"smiles": "Cc1cccc(-n2[nH]c(C)c(C=Nc3ccc4[nH]c(=O)[nH]c4c3)c2=O)c1", "Potency": "inconclusive: 39.8 µM [activator, single point]"}
{"smiles": "Cc1cc(C)c(Cn2c(C(O)c3ccccc3)nc3ccccc32)c(C)c1", "note": "(stereo not drawn)", "Potency": "inconclusive: 0.0794 µM [activator, full curve, poor fit]"}
{"smiles": "N#C/C(=C(/O)COC(=O)CCC1CCCCC1)c1nc2ccccc2[nH]1", "Potency": "inconclusive: 20 µM [inhibitor, partial curve, poor fit]"}
{"smiles": "Cc1cc(NC(=O)Cn2nc(C(F)(F)F)c3c2CCCC3)no1", "Potency": "inconclusive: 39.8 µM [inhibitor, single point]"}
{"smiles": "COc1ccccc1CC(=O)N1CCN(c2cccc(C(F)(F)F)c2)CC1", "Potency": "inconclusive: 39.8 µM [activator, single point]"}
{"smiles": "COc1ccc(Nc2ncnc3sc(-c4ccccc4)cc23)cc1OC", "Potency": "inconclusive: 39.8 µM [activator, single point]"}
{"smiles": "CCCCC(CC)CN1C(=O)/C(=C/c2ccncc2)SC1=S", "note": "(stereo not drawn)", "Potency": "inconclusive: 39.8 µM [activator, single point]"}
{"smiles": "O=C1/C(=C/c2ccccc2)Oc2cc(OC(=O)N3CCOCC3)ccc21", "Potency": "inconclusive: 31.6 µM [activator, single point]"}
{"smiles": "CCCOc1ccc(C(=O)Nc2ccc(C)cc2[N+](=O)[O-])cc1", "Potency": "inconclusive: 25.1 µM [inhibitor, single point]"}
{"smiles": "O=C(Nc1nc(-c2ccc(F)c(F)c2)cs1)c1ccc(OCC2CCCO2)cc1", "note": "(stereo not drawn)", "Potency": "inconclusive: 31.6 µM [inhibitor, single point]"}
{"smiles": "CCOc1ccccc1OCCCC(=O)N1CCN(S(=O)(=O)c2ccc(C)cc2)CC1", "Potency": "inconclusive: 31.6 µM [activator, single point]"}
{"smiles": "CCC1(C)Cc2ccccc2-c2c1c(=O)n(Cc1ccccc1)c1nnnn21", "note": "(stereo not drawn)", "Potency": "inconclusive: 39.8 µM [inhibitor, single point]"}
{"smiles": "CCOC(=O)c1c(-c2ccc(OC)cc2)oc2ccc(OCc3ccc(C(=O)OC)cc3)cc12", "Potency": "inconclusive: 3.16 µM [inhibitor, partial curve]"}
{"smiles": "CCN1CCN(CCCNC(=O)c2ccc3c(c2)sc2nc(-c4ccc(OC)cc4)cn23)CC1", "Potency": "inconclusive: 39.8 µM [activator, single point]"}
{"smiles": "CN1CC[C@@]2(C)c3cc(O)ccc3N(C)C12", "note": "(stereo partly drawn)", "max response, negative = inhibition": "inactive: -3.07%"}
{"smiles": "O=C(Nc1cccc2c1CCCC2)C1CCCN(S(=O)(=O)c2cccc3nonc23)C1", "note": "(stereo not drawn)", "Potency": "inconclusive: 6.31 µM [activator, single point]"}
{"smiles": "O=C(C1CCCN(S(=O)(=O)c2cnc[nH]2)C1)N1CCN(c2ccc(Cl)cc2)CC1", "note": "(stereo not drawn)", "Potency": "inconclusive: 39.8 µM [activator, single point]"}
{"smiles": "COc1ccc(Nc2ccc(S(=O)(=O)N3CCCCC3)cc2[N+](=O)[O-])cc1Cl", "Potency": "inconclusive: 39.8 µM [inhibitor, single point]"}
{"smiles": "Cc1cc(C)c(NC(=O)C2c3ccccc3Oc3ccccc32)c(C)c1", "Potency": "active: 12.6 µM"}
{"smiles": "Cc1ccc(-c2onc(C)c2C)cc1S(=O)(=O)NC1CCCCC1", "Potency": "inconclusive: 39.8 µM [inhibitor, single point]"}
{"smiles": "CCC(=O)Nc1ccc(C(=O)OCC(=O)c2ccc(C)c([N+](=O)[O-])c2)cc1", "Potency": "inconclusive: 39.8 µM [inhibitor, single point]"}
{"smiles": "Cc1ccc(/C=C2/SC(=S)N(CC(=O)Nc3ncc(Cc4ccc(C)cc4)s3)C2=O)cc1", "Potency": "active: 3.98 µM"}
{"smiles": "CNC(=S)N(CCc1cccc(C)c1)Cc1cc2cc(OC)c(OC)cc2[nH]c1=O", "Potency": "inconclusive: 31.6 µM [activator, single point]"}
{"smiles": "CCOc1ccc(CCNC(=O)CN(c2ccc(C)cc2)S(=O)(=O)N(C)C)cc1OCC", "Potency": "inconclusive: 31.6 µM [activator, single point]"}
{"smiles": "O=c1c2cnn(-c3ccccc3)c2nc(-c2cccs2)n1-c1ccc(Cl)cc1", "Potency": "inconclusive: 39.8 µM [inhibitor, single point]"}
{"smiles": "COc1ccc(-c2cc(C(=O)Nc3cccc(C(C)=O)c3)no2)cc1", "Potency": "active: 20 µM"}
{"smiles": "CCOC(=O)c1c(NC(NC(C)=O)C(Cl)(Cl)Cl)sc(C(C)=O)c1C", "note": "(stereo not drawn)", "Potency": "inconclusive: 39.8 µM [activator, single point]"}
{"smiles": "CC(=O)N1CCCc2cc(S(=O)(=O)N(C)CC(=O)Nc3ccc(Cl)cc3C)ccc21", "Potency": "inconclusive: 39.8 µM [activator, single point]"}
